Source: patent publication US10299477B2 (priority 2015, dated 2019)

Key:
Type in all cases: in vivo
Plasmopara viticola = test: Test Example G: Downy mildew on vine; conditions: for Test G control value: 250 ppm sprayed before inoculation; for Test G (control value class): 250 ppm spray; for Test G (control value class, downy mildew on vine): 250 ppm, sprayed 2.5 ml/pot before inoculation; for Test G control value (downy mildew on vine): 250 ppm spray (2.5 ml/pot), preventive, control value class
Excerpt: [Test Example G] Downy Mildew on Vine
Seeds of a test plant (grape variety: Neomuscat) were planted followed by cultivating until three to four first leaves appeared. […] After the sprayed dilutions were dried, a zoosporangia suspension (1-2×10^4 zoosporangia/ml) of Plasmopara viticola was inoculated to the plants by spraying.

Puccinia recondita = test: Test Example E: Brown rust on wheat; conditions: for Test E (control value class, brown rust on wheat): in vivo; for Test E control value (brown rust on wheat): preventive, control value class
Excerpt: [Test Example E] Brown Rust on Wheat

Alternaia brassicicola = test: Test Example C: Alternaria sooty spot on cabbage; conditions: for Test C control value / Test C (control value class): Alternaria sooty spot on cabbage; for Test C (control value class, Alternaria sooty spot on cabbage): in vivo; for Test C control value (Alternaria sooty spot on cabbage): preventive, control value class
Excerpt: [Test Example C] Alternaria Sooty Spot on Cabbage
Seeds of a test plant (cabbage variety: Shikidori) were planted followed by cultivating until the cotyledons extended.

[1] = tested on: Blumeria graminis f sp. hordei; test: Test Example D: Powdery mildew on barley; conditions: for Test D (control value class, powdery mildew on barley): in vivo; for Test D control value (powdery mildew on barley): preventive, control value class
Excerpt: [Test Example D] Powdery Mildew on Barley
After the sprayed dilutions were dried, conidia of Blumeria graminis f sp. hordei were inoculated to the plants by shaking off.

Botrytis cinerea = test: Test Example B: Gray mold on tomato; conditions: for Test B (control value class, gray mold on tomato): in vivo; for Test B control value (gray mold on tomato): preventive, control value class
Excerpt: [Test Example B] Gray Mold on Tomato
Seeds of a test plant (tomato variety: Oogata Fukuju) were planted followed by cultivating until three to five first leaves (true leaves) appeared.

[2] = Downy mildew on vine, 7-10 days after inoculation
[3] = downy mildew on vine, Plasmopara viticola, 7-10 days after inoculation
[4] = brown rust on wheat, Puccinia recondita, 250 ppm spray
[5] = powdery mildew on barley, 250 ppm spray
[6] = gray mold on tomato, Botrytis cinerea, 250 ppm spray
[7] = evaluated 7-10 days after inoculation

CCn1c(-c2c(F)cccc2F)c(-c2cc(OCOC)ccc2Cl)ccc1=O [Compound 97, 5-(2-chloro-5-(methoxymethoxy)phenyl)-6-(2,6-difluorophenyl)-1-ethylpyridine-2(1H)-one]
Test G control value (Plasmopara viticola; [2]): H (H shows more than 50% of control values) | Test E control value (Puccinia recondita; Brown rust on wheat): H (H shows more than 50% of control values) | Test C control value (Alternaia brassicicola): H (H shows more than 50% of control values) | Test D control value ([1]; Powdery mildew on barley): H (H shows more than 50% of control values) | Test B control value (Botrytis cinerea; Gray mold on tomato): H (H shows more than 50% of control values)

CCOc1ccc(Cl)c(-c2ccc(=O)n(CC)c2-c2c(F)cccc2F)c1 [Compound 99]
Test G control value (Plasmopara viticola; [2]): H (H shows more than 50% of control values) | Test E control value (Puccinia recondita; Brown rust on wheat): H (H shows more than 50% of control values) | Test C control value (Alternaia brassicicola): H (H shows more than 50% of control values) | Test D control value ([1]; Powdery mildew on barley): H (H shows more than 50% of control values) | Test B control value (Botrytis cinerea; Gray mold on tomato): H (H shows more than 50% of control values)

CCn1c(-c2c(F)cc(OC)cc2F)c(-c2cc(F)ccc2F)ccc1=O [Compound 468]
Test G (control value class) (Plasmopara viticola; [3]): H (H shows more than 50% of control values) | Test E (control value class) (Puccinia recondita; [4]): H (H shows more than 50% of control values) | Test C (control value class) (Alternaia brassicicola; 250 ppm spray): H (H shows more than 50% of control values) | Test D (control value class) [1, 5]: H (H shows more than 50% of control values) | Test B (control value class) (Botrytis cinerea; [6]): H (H shows more than 50% of control values)

COc1cc(F)c(-c2c(-c3ccccc3F)ccc(=O)n2C)c(F)c1 [Compound 544]
Test G (control value class) (Plasmopara viticola; [3]): L (L shows 50% or less of control values) | Test E (control value class) (Puccinia recondita; [4]): H (H shows more than 50% of control values) | Test C (control value class) (Alternaia brassicicola; 250 ppm spray): H (H shows more than 50% of control values) | Test D (control value class) [1, 5]: H (H shows more than 50% of control values) | Test B (control value class) (Botrytis cinerea; [6]): H (H shows more than 50% of control values)

CCn1c(-c2c(F)cc(F)cc2F)c(-c2cccc(F)c2C)ccc1=O [Compound 674]
Test G (control value class, downy mildew on vine) (Plasmopara viticola; [7]): H (H shows more than 50% of control values) | Test E (control value class, brown rust on wheat) (Puccinia recondita): H (H shows more than 50% of control values) | Test C (control value class, Alternaria sooty spot on cabbage) (Alternaia brassicicola): H (H shows more than 50% of control values) | Test D (control value class, powdery mildew on barley) [1]: H (H shows more than 50% of control values) | Test B (control value class, gray mold on tomato) (Botrytis cinerea): H (H shows more than 50% of control values)

CCn1c(-c2c(F)cccc2F)c(-c2cccc(F)c2F)cc(Cl)c1=O [Compound 519]
Test G (control value class) (Plasmopara viticola; [3]): L (L shows 50% or less of control values) | Test E (control value class) (Puccinia recondita; [4]): H (H shows more than 50% of control values) | Test C (control value class) (Alternaia brassicicola; 250 ppm spray): H (H shows more than 50% of control values) | Test D (control value class) [1, 5]: H (H shows more than 50% of control values) | Test B (control value class) (Botrytis cinerea; [6]): H (H shows more than 50% of control values)

Cn1c(-c2c(F)cc(Cl)cc2F)c(-c2cc(F)ccc2Cl)ccc1=O [Compound 604]
Test G (control value class, downy mildew on vine) (Plasmopara viticola; [7]): L (L shows 50% or less of control values) | Test E (control value class, brown rust on wheat) (Puccinia recondita): H (H shows more than 50% of control values) | Test C (control value class, Alternaria sooty spot on cabbage) (Alternaia brassicicola): H (H shows more than 50% of control values) | Test D (control value class, powdery mildew on barley) [1]: H (H shows more than 50% of control values) | Test B (control value class, gray mold on tomato) (Botrytis cinerea): H (H shows more than 50% of control values)

CCn1c(-c2c(F)cccc2F)c(-c2ccc(Cl)cc2Cl)ccc1=O [Compound 332]
Test G control value (downy mildew on vine) (Plasmopara viticola; 7-10 days after inoculation): H (H shows more than 50% of control values) | Test E control value (brown rust on wheat) (Puccinia recondita; 250 ppm spray): H (H shows more than 50% of control values) | Test C control value (Alternaria sooty spot on cabbage) (Alternaia brassicicola; 250 ppm spray): H (H shows more than 50% of control values) | Test D control value (powdery mildew on barley) ([1]; 250 ppm spray): H (H shows more than 50% of control values) | Test B control value (gray mold on tomato) (Botrytis cinerea; 250 ppm spray): H (H shows more than 50% of control values)

COc1cc(OC)c(Cl)c(-c2ccc(=O)n(C)c2-c2c(F)cc(OCC(F)(F)F)cc2F)c1 [Compound 319]
Test G control value (downy mildew on vine) (Plasmopara viticola; 7-10 days after inoculation): L (L shows 50% or less of control values) | Test E control value (brown rust on wheat) (Puccinia recondita; 250 ppm spray): H (H shows more than 50% of control values) | Test C control value (Alternaria sooty spot on cabbage) (Alternaia brassicicola; 250 ppm spray): H (H shows more than 50% of control values) | Test D control value (powdery mildew on barley) ([1]; 250 ppm spray): H (H shows more than 50% of control values) | Test B control value (gray mold on tomato) (Botrytis cinerea; 250 ppm spray): H (H shows more than 50% of control values)

COc1cc(OC)cc(C2=C(c3c(F)cc(Br)cc3F)N(C)C(=O)CC2)c1 [Compound 187]
Test G control value (downy mildew on vine) (Plasmopara viticola; 7-10 days after inoculation): H (H shows more than 50% of control values) | Test E control value (brown rust on wheat) (Puccinia recondita; 250 ppm spray): H (H shows more than 50% of control values) | Test C control value (Alternaria sooty spot on cabbage) (Alternaia brassicicola; 250 ppm spray): H (H shows more than 50% of control values) | Test D control value (powdery mildew on barley) ([1]; 250 ppm spray): L (L shows 50% or less of control values) | Test B control value (gray mold on tomato) (Botrytis cinerea; 250 ppm spray): H (H shows more than 50% of control values)

CCn1c(-c2c(F)cc(F)cc2F)c(-c2ccccc2Cl)cc(I)c1=O [Compound 821]
Test G (control value class) (Plasmopara viticola; Downy mildew on vine, 2.5 ml/pot, evaluated 7-10 days after inoculation): H (H shows more than 50% of control values) | Test E (control value class) (Puccinia recondita; Brown rust on wheat, control value=100{1-(n/3)}): H (H shows more than 50% of control values) | Test C (control value class) (Alternaia brassicicola; control value=100{1-(n/3)}): H (H shows more than 50% of control values) | Test D (control value class) ([1]; Powdery mildew on barley, control value=100{1-(n/3)}): H (H shows more than 50% of control values) | Test B (control value class) (Botrytis cinerea; Gray mold on tomato, control value=100{1-(n/3)}): H (H shows more than 50% of control values)

COc1cc(F)c(-c2c(-c3cccc(OC)c3Cl)ccc(=O)n2C)c(F)c1 [Compound 663]
Test G (control value class, downy mildew on vine) (Plasmopara viticola; [7]): H (H shows more than 50% of control values) | Test E (control value class, brown rust on wheat) (Puccinia recondita): H (H shows more than 50% of control values) | Test C (control value class, Alternaria sooty spot on cabbage) (Alternaia brassicicola): H (H shows more than 50% of control values) | Test D (control value class, powdery mildew on barley) [1]: H (H shows more than 50% of control values) | Test B (control value class, gray mold on tomato) (Botrytis cinerea): H (H shows more than 50% of control values)

CCn1c(-c2c(F)cc(F)cc2F)c(-c2cc(Cl)ccc2Cl)ccc1=O [Compound 354]
Test G control value (downy mildew on vine) (Plasmopara viticola; 7-10 days after inoculation): H (H shows more than 50% of control values) | Test E control value (brown rust on wheat) (Puccinia recondita; 250 ppm spray): H (H shows more than 50% of control values) | Test C control value (Alternaria sooty spot on cabbage) (Alternaia brassicicola; 250 ppm spray): H (H shows more than 50% of control values) | Test D control value (powdery mildew on barley) ([1]; 250 ppm spray): H (H shows more than 50% of control values) | Test B control value (gray mold on tomato) (Botrytis cinerea; 250 ppm spray): H (H shows more than 50% of control values)
